In ChEMBL document CHEMBL4888484, “Replenishing the malaria drug discovery pipeline: Screening and hit evaluation of the MMV Hit Generation Library 1 (HGL1) against asexual blood stage Plasmodium falciparum ,using a nano luciferase reporter read-out” (2022):
Out of some 150,000 compounds screened, about 540 (0.36%) showed an effect of 50% or more. This is one part of the list.

System: Plasmodium falciparum
Assay: Primary screen in NF54 nanoGlo assay, in single point, at 2uM, 72h; a lower Z score goes with more inhibition
Type: functional, Erythrocyte
Settings: timepoint 72 hour

Compound	% Inhibition [%]	Z score	% Inhibition (2 µM) [%]	Z score (2 µM)
CC(C)CCC(C(=O)NC(C)c1ccccc1)C(=O)NC(C)c1ccccc1 (stereo not given)	3	-0.31	–	–
C[C@@]12CO[C@@H](COc3ccccc3)O[C@@H]1CC[C@]1(C)C2CC[C@@H](O)[C@H]1CC(=O)N1CCC[C@H]1CO (stereo not given in full)	36	-4.08	–	–
COc1ccc(-n2c(=O)[nH]c3cc(-c4nc(-c5ccccc5C)no4)ccc3c2=O)cc1	7	-0.77	–	–
O=C1N(CN2CCN(Cc3ccccc3)CC2)c2ccccc2C12OCCO2	-4	0.58	–	–
Cc1nn(C)c2nc(N3CCC4(CC3)CC(=O)NC(=O)C4)sc12	-10	1.85	–	–
Cc1nn(C)cc1C(=O)NCCc1c[nH]c2ccccc12	-2	0.45	–	–
CC(C)NC(=O)c1cc(F)cc(Br)c1	-13	2.05	–	–
CCCc1nc(C)cc(N2CCC(CC3CC3)(C(=O)O)CC2)n1	-13	1.33	–	–
Cn1cc(-c2nc([C@@H]3COCCN3C(=O)c3ccc4c(c3)CCCC4)no2)cn1	-6	0.85	–	–
CC(C)(C)C(=O)NCC[C@H](O)c1cccs1	-3	0.4	–	–
O=C(c1cnc(C2CC2)nc1)N1CCN2CCOc3cccc1c32	10	-1.33	–	–
CCC1=NO[C@@H](CN(C)CCc2scnc2C)C1	-14	1.76	–	–
COc1cccc(CN2C(=O)CC[C@@]2(C)C(=O)NC2CCCCC2)c1	-6	0.69	–	–
C[C@@H](C1CC1)N(C)S(=O)(=O)CCN1CCOC1=O	-15	1.84	–	–
CCc1nc(C#N)c(NC[C@@H](c2ccsc2)N(C)C)o1	-5	0.69	–	–
Cn1cnc(C(=O)N2CCCCCCn3c(nnc3-c3ccc(F)cc3)CC2)c1	-8	0.99	–	–
COc1ccc(CCNC(=O)Cn2nc(C(F)(F)F)n(C)c2=O)cc1OC	-7	0.79	–	–
CC(=O)c1ccc(CNc2nc(C)nc3c2cnn3C(C)(C)C)nc1C	-11	1.56	–	–
O=C(NCc1cccnc1Oc1ccc(F)cc1F)[C@@H]1CCCN1	9	-1.56	–	–
CCc1nnc(CNC(=O)Nc2nc(C)cs2)o1	-4	0.58	–	–
CCC[C@H](C)C(=O)NCCNC(=O)c1ccn(C(C)C)n1	-15	1.55	–	–
CC(C)Cc1nc2n[nH]c(N)c2c2c1COC(C)(C)C2	-9	1.04	–	–
Cn1cc(CC(=O)NC2CCCC2)c2cccnc21	-1	0.17	–	–
CCCc1nc(-c2ccccc2)cn2c1c(C)c1ccccc12	5	-0.53	–	–
Cc1noc(C)c1CC(=O)Nc1cnns1	25	-2.8	–	–
Cc1ocnc1CNC(=O)c1ccc(O)cc1O	-12	1.39	–	–
O=C(Nc1nnc(CCN2CCCCC2)s1)c1ccccc1	1	-0.07	–	–
OCc1cc(-c2ccc(N3CCOCC3)cc2)c(F)cn1	-9	0.83	–	–

Compound	% Inhibition [%]	Z score	% Inhibition (2 µM) [%]	Z score (2 µM)
Cc1ccccc1C(CN1CCOCC1)NC1CCOC(C)(C)C1 (stereo not given)	5	-0.71	–	–
COc1ncccc1CNC(=O)N(C)C1CCCCCCC1	3	-0.36	–	–
CCCc1nnc(NC[C@@H](C(C)C)N2CCCC2)o1	6	-0.84	–	–
O=C(c1ccc(F)cc1Cl)N1CCC2(CC1)C[C@@H](O)CCO2	-9	1.74	–	–
O=C(NCc1ccc(F)cc1)C(=O)NC[C@H](O)c1cccc2ccccc12	2	-0.34	–	–
CC(=O)N(c1nc(CNc2ccc(C)cc2C)cs1)C1CC1	-3	0.44	–	–
Cn1cc(N)c(C(=O)N2CCC[C@@H]2CO)n1	-14	1.85	–	–
O=C(c1ccc(Br)o1)N1CCCc2cc(S(=O)(=O)N3CCCC3)ccc21	-17	1.59	–	–
Cc1ccc2c(C(=O)O)cc(NC(=O)C3CCC3)cc2n1	-17	1.46	–	–
CC(=O)NC[C@H]1CCN(S(=O)(=O)c2cccc(C#N)c2)C[C@H]1N(C)C	-6	0.74	–	–
CC(C)N1CCC(N[C@@H]2COCC[C@@H]2Oc2ccc(F)cc2)CC1	-11	1.41	–	–
COc1ccc([C@@H]2NC(=O)c3cnn(-c4ccccc4)c3N2)cc1COc1ccccc1C	-32	3.78	–	–
CN1C(=O)c2ccc(NC(=O)c3cncc(Br)c3)cc2C1=O	-10	1.36	–	–
Cc1ccn2c(CN3CCC(NC(=O)CC4CCCC4)CC3)cnc2c1	-9	1.4	–	–
Cc1cc(CN2CCCO[C@@H](Cn3cccn3)C2)on1	8	-1.09	–	–
O=C1NC[C@H]2O[C@H](CCOc3ccccc3C(=O)N3CCN(C4CCOCC4)C[C@@H]13)CC[C@@H]2O	-1	0.09	–	–
COc1ccc([C@@H]2CC(c3cccc(C)c3)=NN2C(=O)CN2CCN(c3ccccc3F)CC2)cc1	-10	1.24	–	–
CC1CC(C)CC(S(=O)(=O)NCc2cn(C3CCC3)nn2)C1 (stereo not given)	-2	0.38	–	–
COc1ncnc(OC)c1NC(=O)c1ccc(F)cc1	25	-2.84	–	–
CC(O)C1CN(C(=O)N[C@@H]2C[C@H]2c2ccc(Cl)cc2)CCO1 (stereo not given in full)	-6	1.19	–	–
Cc1cc(CNc2nc3c(s2)c(C)nn3C)ccn1	-6	1.18	–	–
CCC1C(=O)NCCN1C[C@@H]1CCO[C@H]1c1ccnn1C (stereo not given in full)	0	0.04	–	–
Cc1nccc(NC[C@@H]2CC[C@H](C)N2C)n1	-16	1.91	–	–
COc1cccc(-c2c[nH]c(C)n2)c1C(=O)N(C(C)C)C(C)C	-11	1.42	–	–
Nc1cccnc1N1CCc2ccccc21	–	–	7	-1.12
Cc1cc(CS(=O)(=O)CC(=O)Nc2ccc(F)cc2F)on1	-9	0.96	–	–
O=C([C@@H]1Cc2cc(Cl)ccc2O1)N1CCC(Cc2ccccc2)CC1	-4	0.76	–	–
